{"source": "PubChem BioAssay AID651820", "about": "(National Center for Advancing Translational Sciences (NCATS), 2012)", "note": "Hit rate of the full screen: of about 340,000 compounds, about 12,000 (3.5%) were called active. This list was built around the results that the source calls inconclusive (neither active nor inactive); the mix of calls is not that of the screen. Calls come from the whole dose curve; as a rule, active = well fitted inhibition curve with a large enough effect; inconclusive = small, poorly fitted or top-dose-only effect, or another doubt; inactive = no such curve, though single readings can be large or run the other way. No potency is given beside an inconclusive call; the fits are too rough. % is set by controls: 0 for no effect and ±100 for the full control effect; potency is the fitted concentration of half-maximal effect; tags give direction and shape of the fitted curve.", "data": [{"test": "qHTS Assay for Inhibitors of Hepatitis C Virus (HCV)", "details": "Huh7.5.1 HCVcc-Cre (HCVcc is cell-culture hepatitis C virus) infection, luciferase reporter, 44 h; activity change, negative = inhibition: at 41.8 µM (top of the series) unless noted", "in_short": "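Infectious HCV cell culture screen: compound-treated cells (1,000/well, pre-plated 4 h) are infected with HCVcc-Cre at roughly 0.5 moi and grown 44 h. Infection is quantified by luciferase signal after 15 min substrate incubation at room temperature.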", "values": [{"molecule": "c1ccc(Cn2c3ccccc3c3nnc(SCCN4CCCCC4)nc32)cc1", "activity change, negative = inhibition": "inactive: -21.2%"}, {"molecule": "Cc1nn(Cc2cccc(F)c2)c(C)c1NC(=O)c1ccc(COc2ccccc2Cl)cc1", "Potency": "active: 10 µM"}, {"molecule": "COc1ccc(C2=NN(C(=O)CSc3nc(=O)n4cccc(C)c4n3)C(c3ccc(C)cc3)C2)cc1", "note": "(stereo unspecified)", "Potency": "inconclusive [inhibitor, single point]"}, {"molecule": "O=C(Nc1nc(-c2ccc(Cl)cc2)cs1)C1=COCCO1", "Potency": "inconclusive [inhibitor, partial curve]"}, {"molecule": "Cc1ccc(C(=O)NC(=S)Nc2ccc(N3CCOCC3)cc2)cc1", "Potency": "inconclusive [inhibitor, single point]"}, {"molecule": "CCCCn1c(SCC(=O)N2CCCc3ccccc32)nc2c1c(=O)n(C)c(=O)n2C", "Potency": "inconclusive [inhibitor, single point]"}, {"molecule": "COc1ccccc1NC(=O)CN1CCN(CC(=O)Nc2ccc(Cl)c(C(F)(F)F)c2)CC1", "Potency": "inconclusive [inhibitor, single point]"}, {"molecule": "CC1(C(=O)OCC(=O)Nc2cc(S(=O)(=O)N3CCOCC3)ccc2Cl)CC1(Cl)Cl", "note": "(stereo unspecified)", "Potency": "inconclusive [inhibitor, single point]"}, {"molecule": "Cc1cccc(COc2ccc(/C=N/NC(=O)c3nnn(-c4nonc4N)c3COc3ccc(F)cc3)cc2)c1", "Potency": "inconclusive [inhibitor, partial curve, poor fit]"}, {"molecule": "Cc1ccc(O)c(-c2cc(-c3ccccc3F)[nH]n2)c1", "Potency": "inconclusive [inhibitor, single point]"}, {"molecule": "COC(=O)c1c(NC(=O)COC(=O)[C@@H](NS(=O)(=O)c2cccc(Cl)c2)C(C)C)sc2c1CCC2", "Potency": "inconclusive [inhibitor, partial curve]"}, {"molecule": "Cc1nnsc1C(=O)N/N=C/c1ccc(OC(F)(F)F)cc1", "activity change, negative = inhibition": "inactive: 5.68%"}, {"molecule": "Cc1ccc(-n2nnnc2SCC(=O)Nc2ccccc2-c2ccccc2)cc1C", "Potency": "inconclusive [inhibitor, single point]"}, {"molecule": "Cc1scc(C(=O)N2CCN(c3ccc(Cl)cc3)CC2)c1C", "Potency": "inconclusive [inhibitor, single point]"}, {"molecule": "CN(Cc1ccccc1)CC(O)COc1ccc(CNCc2cccnc2)cc1", "note": "(stereo unspecified)", "Potency": "inconclusive [inhibitor, single point]"}, {"molecule": "CC(=O)N(C)c1ccc(OCC(O)Cn2c(C)nc3ccccc32)cc1", "note": "(stereo unspecified)", "Potency": "active: 11.2 µM"}, {"molecule": "O=C(NCC1OCCc2ccccc21)c1ccc(NC(=O)c2ccc(Cl)cc2Cl)cc1", "note": "(stereo unspecified)", "Potency": "inconclusive [inhibitor, partial curve]"}, {"molecule": "CN1C(=O)c2ccc(C(=O)NC3CCCCC3)cc2C1=O", "activity change, negative = inhibition": "inactive: -3.88%"}, {"molecule": "COC(=O)C(NC(=O)CSc1nc(N)cc(=O)[nH]1)c1ccccc1", "note": "(stereo unspecified)", "activity change, negative = inhibition": "inactive: 6.19%"}, {"molecule": "Cc1ccc(C(CNS(=O)(=O)c2ccc(Cl)cc2)N2CCN(C)CC2)cc1", "note": "(stereo unspecified)", "Potency": "inconclusive [inhibitor, partial curve]"}, {"molecule": "CCOc1ccc(/C=N/Nc2ccccn2)cc1", "activity change, negative = inhibition": "inactive: -21.3%"}, {"molecule": "COc1ccc(C2(OC)Oc3cc(OC)ccc3C(=O)C2(O)OC)cc1", "note": "(stereo unspecified)", "Potency": "inconclusive [inhibitor, single point]"}, {"molecule": "Nc1c(S(=O)(=O)O)cc(NC(=O)c2ccccc2)c2c1C(=O)c1ccccc1C2=O", "activity change, negative = inhibition": "inactive: 18.8%"}, {"molecule": "CC(=O)c1cccc(NC(=O)C(C)OC(=O)CNC(=O)c2ccc(C)s2)c1", "note": "(stereo unspecified)", "Potency": "inconclusive [inhibitor, single point]"}, {"molecule": "O=C(O)c1ccc(CSc2nc3ccc(NC(=O)c4ccccc4C(=O)O)cc3s2)cc1", "activity change, negative = inhibition": "inactive: 13.9%"}, {"molecule": "CC[C@@H]1C(=O)OC[C@@H]1Cc1cncn1C", "activity change, negative = inhibition": "inactive: 17.1%"}, {"molecule": "Cc1nc(N)sc1-c1csc(Nc2cccc(O)c2)n1", "Potency": "inconclusive [inhibitor, single point]"}, {"molecule": "CCOc1ccc2oc(C(=O)N3CCN(c4ccccc4OCC)CC3)c(C)c2c1", "activity change, negative = inhibition": "inactive: -26.2%"}, {"molecule": "COc1cccc(OCc2cc(C(=O)NCc3cnc4ccccn34)no2)c1", "Potency": "active: 8.91 µM"}, {"molecule": "Cc1ccc(S(=O)(=O)N2CCCCC2)cc1C(=O)OC(C)C(=O)NC1CCCCC1C", "note": "(stereo unspecified)", "Potency": "inconclusive [inhibitor, single point]"}, {"molecule": "COc1ccccc1NC(=S)NC(=O)/C=C/c1cccs1", "Potency": "inconclusive [inhibitor, partial curve]"}, {"molecule": "O=C(NN1CCCCC1)c1cccc(COc2ccc(Cl)cc2)c1", "Potency": "inconclusive [inhibitor, single point]"}, {"molecule": "O=C(CSc1nc2cc(C(F)(F)F)ccc2n1Cc1ccccc1)NC1CCS(=O)(=O)C1", "note": "(stereo unspecified)", "activity change, negative = inhibition": "inactive: 0.947%"}, {"molecule": "Cc1ccc(-n2cccn2)c(CN2CCCC(C(=O)c3ccc4c(c3)OCO4)C2)c1", "note": "(stereo unspecified)", "Potency": "inconclusive [inhibitor, partial curve]"}, {"molecule": "Fc1ccc(CNc2ncnc3cc(Cl)ccc23)cc1", "Potency": "active: 10 µM"}, {"molecule": "CC(Cc1ccccc1)Nc1ncnc2c1ncn2C1OC(CO)C(O)C1O", "note": "(stereo unspecified)", "Potency": "inconclusive [inhibitor, single point]"}, {"molecule": "OCC1(Cc2ccccc2)CCCN(C2CCCC2)C1", "note": "(stereo unspecified)", "activity change, negative = inhibition": "inactive: -2.29%"}, {"molecule": "COc1ccc(C2Oc3ccccc3C3=C2C(c2cccs2)n2ncnc2N3)cc1", "note": "(stereo unspecified)", "Potency": "inconclusive [inhibitor, single point]"}, {"molecule": "Cc1ccc2c(COC(=O)CC3Sc4ccccc4NC3=O)cc(=O)oc2c1C", "note": "(stereo unspecified)", "activity change, negative = inhibition": "inactive: 13.1%"}, {"molecule": "Cc1ccc(-c2nnn(CC(=O)NC(=O)NC3CCCCC3)n2)cc1", "activity change, negative = inhibition": "inactive: 4.55%"}, {"molecule": "Clc1c(OCCCn2ccnc2)ccc2ccccc12", "Potency": "active: 14.1 µM"}, {"molecule": "CC(=O)C(N=Nc1ccccc1)(Sc1nnc(-c2ccccc2)n1-c1ccccc1)C(C)=O", "Potency": "inconclusive [inhibitor, partial curve]"}, {"molecule": "CC(C)(C)c1ccccc1OCC(=O)NCc1ccccc1", "Potency": "inconclusive [inhibitor, single point]"}, {"molecule": "COc1ccc(N2CCN(C(=O)CS(=O)Cc3nc(-c4ccc(OC)c(OC)c4)oc3C)CC2)cc1", "note": "(stereo unspecified)", "Potency": "inconclusive [inhibitor, partial curve]"}, {"molecule": "N=c1n(CCO)c2ccccc2n1Cc1ccc(Cl)cc1", "activity change, negative = inhibition": "inactive: -19.2%"}, {"molecule": "CC1CCN(CCCNC(=O)c2ccc(CS(=O)(=O)Cc3ccc(Cl)cc3)o2)CC1", "Potency": "inconclusive [inhibitor, single point]"}, {"molecule": "CCCCCCn1nc(C(=O)N(CCOC)c2c(N)n(CCCC)c(=O)[nH]c2=O)c2ccccc2c1=O", "activity change, negative = inhibition": "inconclusive: -39.6% [inhibitor]"}, {"molecule": "COc1cccc(NC(=O)CSc2nnc(Cc3ccc(C)cc3)c(=O)n2N)c1", "Potency": "inconclusive [inhibitor, single point]"}, {"molecule": "CCOc1ccccc1NC(=O)C(OC(=O)c1ccccc1)c1ccccc1", "note": "(stereo unspecified)", "Potency": "inconclusive [inhibitor, partial curve]"}, {"molecule": "COc1cccc(C(=O)Nc2ccccc2C(=O)NC2CC2)c1", "Potency": "inconclusive [inhibitor, partial curve]"}, {"molecule": "O=S(=O)([N-]c1nc2ccccc2nc1-[n+]1ccc(Cc2ccccc2)cc1)c1ccc(Br)s1", "Potency": "active: 3.55 µM"}, {"molecule": "CN1CCN(c2ccc(S(=O)(=O)N3CCCCC3)cc2NC(=O)Cc2ccc(Cl)cc2)CC1", "Potency": "inconclusive [inhibitor, single point]"}, {"molecule": "CCOC(=O)C1(Cc2cccc(Cl)c2)CCCN(C(=O)c2cccc(C)n2)C1", "note": "(stereo unspecified)", "Potency": "active: 17.8 µM"}, {"molecule": "COc1ccc(CNC(=O)CN2C(=O)C3CCCN3c3ncc(Cl)cc32)cc1", "note": "(stereo unspecified)", "Potency": "inconclusive [inhibitor, full curve, poor fit]"}, {"molecule": "Cc1ccc2nc(N(CCCN(C)C)C(=O)c3ccc(S(=O)(=O)N4CCCCCC4)cc3)sc2c1", "Potency": "inconclusive [inhibitor, single point]"}, {"molecule": "Cc1nc2c(N=Nc3ccccc3F)c(N)nn2c(N)c1C#N", "activity change, negative = inhibition": "inactive: -4.57%"}, {"molecule": "COc1ccc(/C=N/NC(=O)CCN2CCCCC2c2cccnc2)cc1Cn1cc([N+](=O)[O-])cn1", "note": "(stereo unspecified)", "Potency": "inconclusive [inhibitor, partial curve]"}, {"molecule": "c1ccc2c(c1)oc1c(Nc3ccc(CN4CCOCC4)cc3)ncnc12", "Potency": "inconclusive [inhibitor, single point]"}, {"molecule": "COc1cc2cc(CCCOC(=O)c3ccc(Br)cc3)oc(=O)c2cc1OC", "Potency": "inconclusive [inhibitor, single point]"}, {"molecule": "CC(C)(C)c1ccc(OCCCC(=O)NNC(=O)c2ccccc2O)cc1", "activity change, negative = inhibition": "inconclusive: -45.4% [inhibitor]"}, {"molecule": "Cc1ccc(C(=O)COC(=O)c2ccncc2)cc1[N+](=O)[O-]", "activity change, negative = inhibition": "inactive: 5.44%"}, {"molecule": "NC(=O)c1ccccc1N/C=C/C(=O)c1ccc(Cl)cc1", "activity change, negative = inhibition": "inactive: -16.7%"}, {"molecule": "Cc1ccc(C(=O)NC(=S)N2CCCCCC2)cc1", "activity change, negative = inhibition": "inactive: -1.49%"}, {"molecule": "COc1ccc(C)cc1NC(=O)C(Sc1nnc(-c2ccncc2)n1-c1ccc(Cl)cc1)c1ccccc1", "note": "(stereo unspecified)", "Potency": "inconclusive [inhibitor, partial curve]"}, {"molecule": "CCOc1ccc(OCc2ccc(C(=O)NN=Cc3ccc[nH]3)cc2)cc1", "Potency": "active: 0.562 µM"}, {"molecule": "C/C(=N\\NC(=O)c1nnn(-c2nonc2N)c1CN1CCC(C)CC1)c1cccc(Br)c1", "activity change, negative = inhibition": "inactive: 8.99%"}, {"molecule": "CCC(C(=O)Nc1nnc(-c2ccco2)s1)c1ccccc1", "note": "(stereo unspecified)", "activity change, negative = inhibition": "inactive: 12.4%"}, {"molecule": "COc1ccc(CCNc2oc(Cc3ccccc3)nc2C#N)cc1OC", "Potency": "active: 10 µM"}, {"molecule": "C#CCOCCOCCOCCNc1nc(N2CCN(C(=O)[C@H](CCCCN)n3cc(CCCC)nn3)CC2)nc(N2CCN(C(=O)[C@H](Cc3ccc(O)cc3)n3cc(CCO)nn3)CC2)n1", "Potency": "inconclusive [inhibitor, single point]"}, {"molecule": "Cc1cc(OCC(=O)Nc2ccncc2)cc(C)c1Cl", "Potency": "active: 12.6 µM"}, {"molecule": "CC(C)NC(=O)[C@H](CSCc1ccccc1)N1Cc2ccccc2C1=O", "activity change, negative = inhibition": "inactive: 15.9%"}]}]}
